# In the antibiotic and cytotoxicity screens of Wong et al. (2023):
# The other results are listed elsewhere or left out.
# Tested on: HSkMC (human skeletal muscle cells)
# Assay: cytotoxicity call (relative viability < 0.9)
# Conditions: 10 µM
row,SMILES,cytotoxicity call
1,COc1ccc(S(=O)(=O)N(C)C[C@H]2Oc3ccc(NC(=O)C4CC4)cc3CC(=O)N([C@@H](C)CO)C[C@@H]2C)cc1,inactive
2,C[C@H](CO)N1C[C@H](C)[C@H](CN(C)C(=O)NC2CCCCC2)OCCCC[C@H](C)Oc2ccc(NC(=O)NC3CCCCC3)cc2C1=O,inactive
3,C[C@@H]1CCCCO[C@@H](CN(C)Cc2ccccc2)[C@@H](C)CN([C@H](C)CO)C(=O)c2cc(NC(=O)Nc3cccc4ccccc34)ccc2O1,inactive
4,CN(CC(=O)NC1CCCC1)S(=O)(=O)c1ccc2c(c1)c(=O)n(C)c(=O)n2C,inactive
5,C[C@H](CO)N1C[C@H](C)[C@H](CN(C)Cc2ccc(C(F)(F)F)cc2)OCCCC[C@H](C)Oc2ccc(NC(=O)Cc3ccccc3)cc2C1=O,inactive
6,C[C@@H]1CN([C@H](C)CO)C(=O)CCCn2nncc2CO[C@@H]1CN(C)C(=O)c1ccc(N2CCN(C)CC2)cc1,inactive
7,COc1ccc([Si](C)(C)[C@@H]2[C@@H](CCO)O[C@]3(C(=O)N(Cc4ccccc4)c4ccc(N5CCCCC5=O)cc43)[C@H]2C)cc1,inactive
8,C[C@@H](O)[C@H](N)C(=O)N[C@@H](CCCCN)C(=O)N1CCC[C@H]1C(=O)N[C@@H](CCCNC(=N)N)C(=O)O,inactive
9,CCS(=O)(=O)N1C[C@]2(CN(Cc3cccc(c3)Cl)[C@@H](CO)c3c2c2ccc(cc2n3C)OC)C1,inactive
10,C[C@@H]1CN([C@@H](C)CO)C(=O)c2cc(NC(=O)Cn3cnnn3)ccc2O[C@H]1CN(C)Cc1ccc(C(=O)Nc2ccccc2N)cc1,inactive
